Results published in PubChem BioAssay AID686979 (National Center for Advancing Translational Sciences (NCATS), 2013).
Screen size: about 420,000 compounds; about 50,000 (12%) were called active. The inconclusive results got no clear call from the source; some entries with a clear call stand among them for comparison. The call rests on the fitted dose curve; in most records, active means well fitted inhibition curve with a large enough effect; inconclusive means small, poorly fitted or top-dose-only effect; inactive means flat fitted curve, though single readings scatter. Potencies of inconclusive entries are left out as doubtful fits.
On the % scale 0 is the no-effect control and ±100 the full control effect; potency means the concentration at half of the fitted maximal effect; tags describe the fitted curve by direction and shape.

Assay: qHTS for Inhibitors of human tyrosyl-DNA phosphodiesterase 1 (TDP1): qHTS in cells in presence of CPT; further: nearly all actives have a fitted effect of over 55% in size
Settings: chicken DT40 Tdp1-/-;hTDP1 cells + 20 nM CPT, ATP luminescence, 48 h; activity change, negative = growth inhibition: at 46.2 µM (top of the series)
Procedure, shortened: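 Cell growth measured by CellTiter-Glo luminescence after a minimum 48 h, 37 C compound exposure with 20 nM CPT in Tdp1-knockout DT40 cells stably expressing hTDP1, seeded 400/well; qHTS titration format.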
For `O=C(c1ccco1)N1CCN(C(c2ccc(Cl)cc2)c2nnnn2Cc2ccccc2)CC1` (stereo not given), the Potency was “inactive”. In the case of `CC(Oc1ccccc1Cl)C(=O)Nc1ccc(S(=O)(=O)N2CCCC2)cc1` (stereo not given), the Potency is reported as inconclusive [inhibitor, single point]. In the case of `COc1ccc(-c2nc(NC(=O)Cn3cnnn3)sc2C)cc1`, the Potency is reported as “inactive”. In the case of `O=C(COc1ccccc1Cl)N1N=C(c2cccs2)CC1c1ccco1` (stereo not given), the Potency is reported as inconclusive [inhibitor, single point]. For `O=S1(=O)CCN(C2CCCCCCCCCCC2)CC1`, the Potency was active: 20.6 µM. With `N/C(=N\c1nc2c(c(=O)[nH]1)CCC2)Nc1ccccc1C(F)(F)F` the Potency was inconclusive [inhibitor, single point]. In the case of `CC(=O)Oc1c(C(=O)c2nnc(C)o2)c(=O)n(C)c2ccccc12`, the Potency is reported as inconclusive [inhibitor, single point]. In the case of `CCCN1C(=O)SC(CC(=O)Nc2ccccc2C)C1=O` (stereo not given), the Potency is reported as inconclusive [inhibitor, single point]. With `NC(=O)CC(NC(=O)Cc1ccc(Br)cc1)c1ccc(NC2CC3CCC2C3)c([N+](=O)[O-])c1` (stereo not given) the Potency was inconclusive [inhibitor, single point]. In the case of `CCn1c(=NC(=O)c2ccco2)sc2cccc(F)c21`, the Potency is reported as inconclusive [inhibitor, single point]. In the case of `CCc1cccc(NC(=O)C(Cc2ccccc2)NS(=O)(=O)c2cccs2)c1` (stereo not given), the Potency is reported as inconclusive [inhibitor, single point]. With `COc1ccc(-n2c(=O)c3c4c(sc3n(Cc3ccccc3C)c2=O)CCCC4)c(OC)c1` the Potency was inconclusive [inhibitor, single point]. For `CCCc1cc(N2CCCC2)n2nc(C)c(-c3ccccc3)c2n1`, the Potency was inconclusive [inhibitor, single point]. In the case of `CCN1c2ccccc2-c2nc3ccccc3n2C1c1ccncc1` (stereo not given), the Potency is reported as inconclusive [inhibitor, partial curve]. In the case of `Cc1c(Br)c(C(F)(F)F)nn1CC(=O)NCC1CCCO1` (stereo not given), the Potency is reported as “inactive”. For `CCOC(=O)N1CCN(C(=O)Cn2ncc3c2-c2ccccc2OC3)CC1`, the activity change, negative = growth inhibition was inconclusive: -30.3% [inhibitor]. In the case of `COc1ccc(NC(=S)N2CCC(Cc3ccccc3)CC2)cc1`, the Potency is reported as active: 10.3 µM. With `CCn1c(SCC(N)=O)nc2sc3c(c2c1=O)CCCC3` the Potency was “inactive”. For `CN(c1ccccc1)S(=O)(=O)c1cccc(NC(=O)CSc2n[nH]c(N)n2)c1`, the Potency was active: 9.2 µM. With `CCN(Cc1ccccc1)C(=O)c1cc2cc(OC)c(OC)cc2[nH]1` the Potency was inconclusive [inhibitor, single point].
